# Experimental data published in PMC4336329 (PLoS ONE, 2015).
# The whole screen tested about 310,000 compounds, of which about 14,000 (4.5%) showed an effect of 50% or more. Effects have a minus sign here. The list shows a part of the results.
# Target: human ether-à-go-go-related gene (hERG) potassium channel (human, UniProt Q12809)
# Assay: primary screen, population patch clamp on CHO cells stably expressing hERG
# 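Also: peak tail current of the secondary pulse compared with the same well before compound.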
# human ether-à-go-go-related gene (hERG) potassium channel, sequence (Q12809 whole entry, looked up): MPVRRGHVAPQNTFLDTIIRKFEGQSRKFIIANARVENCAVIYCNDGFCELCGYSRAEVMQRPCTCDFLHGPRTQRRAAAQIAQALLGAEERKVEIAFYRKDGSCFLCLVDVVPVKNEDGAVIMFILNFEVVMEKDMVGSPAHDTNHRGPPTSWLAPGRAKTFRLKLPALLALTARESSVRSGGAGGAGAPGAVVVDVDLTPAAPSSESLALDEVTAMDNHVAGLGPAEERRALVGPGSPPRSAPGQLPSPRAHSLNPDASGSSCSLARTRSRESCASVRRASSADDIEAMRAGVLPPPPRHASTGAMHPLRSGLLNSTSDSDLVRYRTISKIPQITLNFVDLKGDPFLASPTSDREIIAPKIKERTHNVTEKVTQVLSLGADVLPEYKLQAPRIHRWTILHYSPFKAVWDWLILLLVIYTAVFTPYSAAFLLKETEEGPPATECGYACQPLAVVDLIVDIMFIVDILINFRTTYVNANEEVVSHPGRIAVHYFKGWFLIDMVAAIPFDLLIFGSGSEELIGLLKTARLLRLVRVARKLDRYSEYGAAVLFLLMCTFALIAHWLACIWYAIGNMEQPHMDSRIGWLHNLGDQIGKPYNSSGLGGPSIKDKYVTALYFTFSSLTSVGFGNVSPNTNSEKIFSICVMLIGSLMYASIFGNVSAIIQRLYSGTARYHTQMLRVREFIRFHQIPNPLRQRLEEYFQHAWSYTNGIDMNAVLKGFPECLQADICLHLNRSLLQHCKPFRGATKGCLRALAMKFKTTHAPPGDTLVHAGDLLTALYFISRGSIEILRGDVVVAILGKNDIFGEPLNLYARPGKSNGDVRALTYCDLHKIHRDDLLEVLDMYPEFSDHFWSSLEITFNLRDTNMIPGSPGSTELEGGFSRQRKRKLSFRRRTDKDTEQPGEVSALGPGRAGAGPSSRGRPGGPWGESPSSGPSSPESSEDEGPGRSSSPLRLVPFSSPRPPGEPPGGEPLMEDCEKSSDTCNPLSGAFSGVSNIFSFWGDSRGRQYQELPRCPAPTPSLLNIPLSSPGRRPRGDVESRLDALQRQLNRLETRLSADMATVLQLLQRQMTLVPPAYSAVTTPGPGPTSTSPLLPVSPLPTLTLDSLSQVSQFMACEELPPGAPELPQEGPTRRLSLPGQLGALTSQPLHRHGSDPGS
row,SMILES,"hERG current change (%, negative = inhibition) at 10uM [%]"
1,Cc1csc(NC(=O)CSc2nnc(-c3ccoc3C)n2Cc2ccco2)n1,-82
2,O=C(O)c1csc(-c2cccc(Cl)c2)n1,11.1
3,COc1ccc(C(=O)c2ccc(N3CCN(C(=O)c4ccc(F)cc4)CC3)c(F)c2)cc1Br,-7.78
4,Cc1c(C(=O)NC2CCCCC2)sc2ncnc(N3CCN(c4ccccc4)CC3)c12,13.7
5,CN(Cc1cccs1)C(=O)COc1cccc(-n2cnnn2)c1,-11.3
6,C#CCOCCOCCOCCNc1nc(N2CCN(C(=O)C([C@@H](C)CC)n3cc(C(N)COC(=O)C(F)(F)F)nn3)CC2)nc(N2CCN(C(=O)C([C@@H](C)CC)n3cc(C(N)CC(C)C)nn3)CC2)n1.Cl (some centres unmarked),28.5
7,COC(=O)/C=C1\S/C(=N/N=C/c2ccc(Cl)cc2)NC1=O,16.7
8,ONC(=Nc1ccccc1)c1ccccc1Cl,2.37
9,Cc1ccccc1CN1CCN(C/C=C/c2ccccc2)CC1,8.81
10,Cc1cnc(C(=O)OCC(=O)c2ccc(C3CCCCC3)cc2)cn1,-1.88
11,O=C(CCC1CCN(Cc2ccccc2Cl)CC1)NC1CC1,-23.2
12,O=C(Nc1cc(Cl)ccc1F)C1=COCCO1,17
13,COc1ccccc1Nc1nc(N)nc(CSC(=S)N2CCCCC2C)n1 (centres unmarked),-5.64
14,CCOC(=O)C(NC(C)=O)C(=O)Nc1ccc(OC)cc1 (centres unmarked),11.6
15,CSC1=NCCN1C(=O)c1c(-c2ccccc2Cl)noc1C,-0.666
16,CSc1ccc(CNC2CN3CCC2CC3)cc1.Cl (centres unmarked),-10.7
17,Cc1cc(Nc2cc(F)ccc2C)n2nc(C)nc2n1,-2
18,Fc1cccc(-c2cc3nc(-c4ccccc4)cc(N4CCC5(CC4)OCCO5)n3n2)c1,7.68
19,NC(=O)Nc1ccc(Oc2c(F)c(F)c(F)c(F)c2F)cc1,-11.5

row,SMILES,"hERG current change (%, negative = inhibition) at 10uM [%]"
1,CC(C)(C)CC(C)(C)N=C1NS(=O)(=O)c2cc([N+](=O)[O-])ccc21,9.73
2,CCOC(=O)C(Sc1cc(C)nc(N)n1)C(C)=O (centres unmarked),12.4
3,O=C(COC(=O)CCc1c[nH]c2ccccc12)NC(c1ccccc1)c1ccccc1,1.23
4,CC(C)N1CCN(Cc2ccc(OCc3ccccc3)cc2)CC1CCO (centres unmarked),-51.6
5,Cc1ccc(C)c(-c2cc(C(=O)Nc3cccnc3)c3ccccc3n2)c1,-61
6,COC(=O)Nc1ccc(S(=O)(=O)Nc2ccc(C(=O)O)cc2)cc1,17.4
7,CCCOc1ccc(N/C=C/C(=O)c2cc(OC)c(OC)c(OC)c2)cc1,11.6
8,COc1ccc(OC)c(/C=C/C(=O)OCC(=O)Nc2ccc3c(c2)OCCO3)c1,15.9
9,O=C(NNC(=O)c1nn(-c2ccc(F)cc2)ccc1=O)Nc1cccc(Cl)c1,13.6
10,COc1cc(C(=O)Nc2ccc3c(c2)OCO3)c([N+](=O)[O-])cc1OC,9.96
11,Cn1c(CN2CCCC2)nc2cc(NC(=O)C3CCCCC3)ccc21,-4.77
12,COc1ccc(OC)c(N(CC(=O)NCCSc2ccccc2)S(C)(=O)=O)c1,-32.7
13,CCC(=O)OCCNc1cc(SCCC(=O)OC)c2nonc2c1[N+](=O)[O-],-48.9
14,Cc1cc2oc(C(=O)NCc3ccc4c(c3)OCO4)c(C)c2cc1C,9.91
15,CCC(C)(C)NC(=O)CN(C(=O)c1snc(C(N)=O)c1N)c1ccc2c(c1)OCO2,-7.73
16,O=C(CCS(=O)(=O)c1cccs1)N1CCN(c2ccc(F)cc2)CC1,-41
17,COC(=O)c1nn(-c2ccccc2)c(Cl)c1/C=N/OCc1ccc(C)cc1,20.3
18,Cc1ccc(S(=O)(=O)CC(=O)Nc2cc(C)on2)cc1,16.5
19,O=C(COC(=O)c1ccc([N+](=O)[O-])o1)Nc1nc2ccccc2s1,-10.6

row,SMILES,"hERG current change (%, negative = inhibition) at 10uM [%]"
1,COC(=O)Nc1nc(C)c(C(=O)c2ccccc2)s1,-11.5
2,Cc1ccc(C)c(NC(=O)CN(C)C(=O)c2nn(C)c(=O)c3ccccc23)c1,9.87
3,Cc1ccc(NC(=O)CN(C)C(=O)CCC(=O)c2cccs2)cc1,-16.2
4,CCOC(=O)N1CCN(C(=O)Cn2c(C)cc3ccccc3c2=O)CC1,3.68
5,CCOC(=O)C1=C(C)OC(N)=C(C#N)C1c1ccccc1 (centres unmarked),4.65
6,Cc1ccc(-n2c(Cc3cccn3C)nnc2SCC(=O)Nc2cc(C)on2)cc1,-12.7
7,COc1ccc(CCC(=O)OCC(=O)Nc2sccc2C(N)=O)cc1,-5.4
8,COC(=O)c1c(NC(=O)COC(=O)CNC(=O)C2CCCCC2)sc(C)c1C,-0.867
9,CC(c1ccc(F)cc1)n1c(Cn2ncc3ccccc3c2=O)n[nH]c1=S (centres unmarked),5.35
10,CCOC(=O)CSc1nc2sc3c(c2c(=O)[nH]1)CC(C)(C)OC3,0.154
11,Cc1c(NC(=O)c2ccccc2)c(=O)n(-c2ccccc2)n1C,-3.48
12,Cc1[nH]n(-c2ccccc2)c(=O)c1N=Nc1ccccc1C(=O)O,1.85
13,CCn1c(=O)cc(N2CCOCC2)[nH]c1=O,0.84
14,COc1ccccc1N1CCN(C(=O)c2oc3cc(C)cc(C)c3c2C)CC1,10.6
15,Cc1c(/C(O)=C2/C(=O)C(=O)N(CCN3CCOCC3)C2c2ccccn2)cnn1-c1ccccc1 (centres unmarked),10.9
16,CCCC(NC(=O)C(C)N1CCN(S(=O)(=O)c2ccccc2)CC1)c1ccccc1 (centres unmarked),-27.8
17,CCOC(=O)CSc1nc(-c2ccccc2)cc(C(F)(F)F)n1,2.66
18,O=C(Cn1cnc2ccccc2c1=O)c1ccc(Br)cc1,6.72
